# From the supplement of paper PMC10600219
# Where a name gives a salt, the structure may show the parent alone. Over roughly 2,800 compounds, “cell viability relative to vehicle” has its median near 1.1; the lowest 2% begin near 0.19. The list shows a part of the results.
# System: NCI-H2228 parental
# Test: cell viability relative to vehicle (fraction of vehicle); NCI-H2228 is an ALK-positive lung cancer line and DTP means drug-tolerant persister; higher = less growth inhibition
# Details: 100 nM; treatment time 6 days
# In short: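 Parental NCI-H2228 cells and drug-tolerant persister cells (made with 1000 nM of a targeted drug for 13 days) were seeded in 384-well plates. The next day, the 3114-agent TargetMol anti-cancer compound library was added at 100 nM, with DMSO as vehicle. After 6 days, ATP was read with the CellTiter-Glo 3D Cell Viability Assay. Each value is cell viability relative to vehicle-treated cells.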
row,SMILES,cell viability
1,CC(C)=CC[C@@H](OC(=O)C=C(C)C)C1=CC(=O)c2c(O)ccc(O)c2C1=O [Dimethylacrylshikonin],1.01
2,CN(C)CCC(c1ccc(Cl)cc1)c1ccccn1 (configuration not stated) [Chlorpheniramine maleate],1.22
3,COc1cc(N)c(Cl)cc1C(=O)NC1CCN(CCCOc2ccc(F)cc2)CC1OC (configuration not stated) [Cisapride],0.896
4,Fc1ccc(-n2cc(CCCCN3CCC4(CC3)OCc3ccccc34)c3ccccc32)cc1 [Siramesine hydrochloride],1.13
5,COc1cccc(OCCCN)c1-c1cc(Nc2cnc(C#N)cn2)n[nH]1 [Prexasertib dihydrochloride],0.169
6,COc1ccc2cc1Oc1ccc(cc1)C[C@H]1c3c(cc4c(c3Oc3cc5c(cc3OC)CCN(C)[C@@H]5C2)OCO4)CCN1C [Cepharanthine],1.01
7,O=C(O)C1=CO[C@@H](O[C@@H]2O[C@H](CO)[C@@H](O)[C@H](O)[C@H]2O)[C@H]2[C@@H]1C=C[C@]2(O)CO [Monotropein],0.995
8,NC1=N[C@@]2(c3cc(NC(=O)c4ccc(F)cn4)ccc3F)COC[C@H]2CS1,1.19
9,COC1=C(OC)C(=O)C(C/C=C(\C)CC/C=C(\C)CC/C=C(\C)CC/C=C(\C)CC/C=C(\C)CC/C=C(\C)CC/C=C(\C)CC/C=C(\C)CC/C=C(\C)CCC=C(C)C)=C(C)C1=O [Coenzyme Q10],1.02
10,COc1ccc(COc2cc3oc(=O)c4cc(C(C)O)ccc4c3cc2OC)cc1 (configuration not stated) [Palomid 529],1.04
11,COC(=O)Nc1nc2cc(C(=O)c3ccc(F)cc3)ccc2[nH]1 [Flubendazole],0.866
12,COc1cc2ncnc(Nc3cccc(O)c3)c2cc1OC,1.03
13,OC[C@H]1O[C@@H](Oc2cc3c(O)cc(O)cc3[o+]c2-c2ccc(O)c(O)c2)[C@H](O)[C@@H](O)[C@@H]1O [Kuromanin chloride],1.18
14,O=C(O)c1ccc(S(=O)(=O)N(Cc2ccc(OC(F)(F)F)cc2)c2ncc(C(F)(F)F)cc2Cl)cc1,1.02
15,COc1cc(N(C)C)cc(CN(C)CCc2ccc([N+](=O)[O-])cc2)c1O [CDC25 Phosphatase Inhibitor I],1.05
16,CCN1CCN(c2cc(-c3ccc(F)cc3)c3c(n2)CCCCCC3)CC1 [Blonanserin],1.09
17,O=C(NNS(=O)(=O)c1ccccc1F)c1cc(F)cc(-c2ccccn2)c1,0.971
18,O=C1CCc2c(ccc3ccccc23)O1 [Splitomicin],1.13
19,CC[C@@H]1C(=O)N(C)c2cnc(Nc3ccc(C(=O)NC4CCN(C)CC4)cc3OC)nc2N1C1CCCC1,0.167
20,O=S(=O)(N=Cc1c(O)ccc2ccccc12)c1cccs1,1.05
21,Fc1ccc(CNc2ncnc3ccc(F)cc23)cc1 [Spautin-1],1.05
22,CCS(=O)(=O)N1CCC([C@@H](C)n2c(C)c(C(=O)NCc3c(OC)cc(C)[nH]c3=O)c3ccccc32)CC1,0.907
23,CC(C)(C)NCC(O)c1ccc(O)c(CO)c1 (configuration not stated) [Salbutamol],0.862
24,CCCCC[C@H](O)CC(=O)CCc1ccc(O)c(OC)c1 [6-Gingerol],1.09
25,CO[C@H]1C[C@@H]2CC[C@@H](C)[C@@](O)(O2)C(=O)C(=O)N2CCCC[C@H]2C(=O)O[C@H]([C@H](C)C[C@@H]2CC[C@@H](OP(C)(C)=O)[C@H](OC)C2)CC(=O)[C@H](C)/C=C(\C)[C@@H](O)[C@@H](OC)C(=O)[C@H](C)C[C@H](C)/C=C/C=C/C=C/1C [Ridaforolimus],0.661
26,O=C(Nc1cccc(Cl)c1)Nc1ncc(CCNc2ncnc3ccsc23)s1 [SNS-314 Mesylate],0.126

row,SMILES,cell viability
1,Nc1n[nH]c2cc(-c3ccc(=O)n(Cc4cccc(Cl)c4)c3)ccc12,1
2,COc1ccc(-c2oc3cc(OC)c(OC)c(O)c3c(=O)c2OC)cc1O [Vitexicarpin],1.02
3,CC(C)C(C(=O)O)N1C(=O)C(=Cc2ccc(Br)cc2)SC1=S (configuration not stated),1.04
4,CN(C)c1ccc(C2Nc3ccc4ccccc4c3C3=C2C(=O)CC(C)(C)C3)cc1Br (configuration not stated) [Glutaminase C-IN-1],1.04
5,Clc1ccc2c(NCCNc3ccnc4cc(Cl)ccc34)ccnc2c1,1.14
6,CN1CCN(c2ccc(C(=O)Nc3n[nH]c4ccc(Cc5cc(F)cc(F)c5)cc34)c(NC3CCOCC3)c2)CC1 [Entrectinib],0.619
7,S=P(N1CC1)(N1CC1)N1CC1 [Triethylenethiophosphoramide],0.83
8,c1cnc(NCc2ccc(CNc3ncccn3)cc2)nc1,1.06
9,O=C(Nc1cc(Cl)cc2c1[nH]c1cnccc12)c1cccnc1,1.06
10,COc1ccc2cc(Br)ccc2c1 [2-Bromo-6-methoxynaphthalene],1.18
11,CNC(=O)CN1CCC(Oc2cc3c(Nc4cccc(Cl)c4F)ncnc3cc2OC)CC1 [Sapitinib],1.08
12,CCCS(=O)(=O)Nc1ccc(F)c(C(=O)c2c[nH]c3ncc(Cl)cc23)c1F,0.928
13,CCN1CCCC1CNC(=O)c1cc(S(=O)(=O)CC)c(N)cc1OC (configuration not stated) [Amisulpride],1.1
14,CC1CCc2cc(F)cc3c(=O)c(C(=O)O)cn1c23 (configuration not stated) [Flumequine],1.08
15,COc1cc(N2CCC(N3CCN(C)CC3)CC2)ccc1Nc1ncc(Cl)c(Nc2ccccc2S(=O)(=O)C(C)C)n1,0.421
16,COc1c(O)cc2c(c1O)[C@@H]1O[C@H](CO)[C@@H](O)[C@H](O)[C@H]1OC2=O [Bengenin],1.22
17,CC(C)[C@H]1CC[C@H](C(=O)N[C@H](Cc2ccccc2)C(=O)O)CC1 [Nateglinide],1.2
18,Nc1cccc(-c2cc3c(Oc4cccc(O)c4)ncnc3[nH]2)c1,0.996
19,COc1ccc(-n2nc(C(N)=O)c3c2C(=O)N(c2ccc(N4CCCCC4=O)cc2)CC3)cc1 [Apixaban],0.894
20,COc1ccc(C(C)=O)c(O)c1 [Paeonol],1.07
21,C[C@H]1CC[C@@]2(OC1)O[C@H]1C[C@H]3[C@@H]4CC[C@@H]5C[C@@H](O[C@@H]6O[C@H](CO)[C@H](O)[C@H](O)[C@H]6O[C@@H]6O[C@H](CO)[C@@H](O)[C@H](O)[C@H]6O)CC[C@]5(C)[C@H]4CC[C@]3(C)[C@H]1[C@@H]2C [Timosaponin AIII],1.17
22,COc1cc(-c2nc3ccccc3s2)ccc1O,1.03
23,COc1ccc(CCCOC(Cn2ccnc2)c2ccc(OC)cc2)cc1 (configuration not stated),1.14
24,COc1ccccc1OCCNCC(O)COc1cccc2[nH]c3ccccc3c12 (configuration not stated) [Carvedilol],1.09
25,COc1ccccc1OCCNCC(O)COc1cccc2[nH]c3ccccc3c12 (configuration not stated) [Carvedilol phosphate],1.15
26,COc1cc2c(cc1OC)-c1cc3nc4ccccc4nc3n1C(C)(C)C2,1.11

row,SMILES,cell viability
1,CCn1cc(C(=O)O)c(=O)c2cc(F)c(N3CCNCC3)cc21 [Norfloxacin],0.956
2,COC1(c2sc3c(N4CCOCC4)nc(-c4cnc(N)nc4)nc3c2C)COC1,0.499
3,FC(F)(F)c1ccccc1-c1nc(NCc2cccs2)c2ccccc2n1,1.04
4,CC(CN1c2ccccc2Sc2ccccc21)N(C)C (configuration not stated) [Promethazine hydrochloride],0.834
5,CC(CN1c2ccccc2Sc2ccccc21)N(C)C (configuration not stated) [Promethazine],1.11
6,C[C@H]1CNC(=O)c2cnn3ccc(nc23)N[C@H](C)c2cc(F)ccc2O1,0.544
7,Cc1ccc(NC(=O)Nc2cc(C(F)(F)F)ccc2F)cc1Nc1ccc2c(c1)NC(=O)/C2=C\c1ccc[nH]1,1.13
8,CNC(=O)c1ccccc1Sc1ccc2c(/C=C/c3ccccn3)n[nH]c2c1 [Axitinib],1.28
9,CN(C)[C@@H]1CCc2[nH]c3ccc(NC(=O)c4ccc(F)cc4)cc3c2C1,1.11
10,COc1cc(C[C@H]2C(=O)OC[C@@H]2Cc2ccc(OC)c(OC)c2)ccc1O [Arctigenin],1.1
11,NS(=O)(=O)c1cc2c(cc1C(F)(F)F)NC(Cc1ccccc1)NS2(=O)=O (configuration not stated) [Bendroflumethiazide],1.01
12,C[C@@]12CC[C@@H]3[C@@](CC[C@H]4[C@@]3(C)CCC[C@@]4(C)C(=O)O)(CC1=O)C2 [Isosteviol],1.07
13,CO[C@H]1CC[C@H](N2C(=O)CNc3ncc(-c4ccc(C(C)(C)O)nc4)nc32)CC1,1.07
14,O=C1c2ccccc2-c2n[nH]c3cccc1c23 [Pyrazolanthrone],1.16
15,O=C(c1ccc(OCCN2CCCCC2)cc1)c1c(-c2ccc(O)cc2)sc2cc(O)ccc12 [Raloxifene hydrochloride],1.21
16,CCOC(=O)c1c(C)[nH]c(C=C2C(=O)Nc3ccccc32)c1C [VEGFR2 Kinase Inhibitor I],1.04
17,CNC(=O)c1ccc(N2C(=S)N(c3cnc(C#N)c(C(F)(F)F)c3)C(=O)C23CCC3)cc1F [Apalutamide],0.898
18,Cn1nnc(-c2ccc(-c3ccc(N4C[C@H](CO)OC4=O)cc3F)cn2)n1 [Torezolid],0.927
19,Nc1cccc(-c2nc(N3CCOCC3)c3oc4ncccc4c3n2)c1 [PIK-inhibitors],1.11
20,CCCCCCOc1cc(C)c(O)c(C)c1C,1.11
21,N#Cc1ccc(COc2ccc(-c3cccc4nc(NC(=O)C5CC5)nn34)cc2)cn1 [GLPG0634 analogue],0.961
22,O=C1Nc2ccc(I)cc2/C1=C/c1cc(Br)c(O)c(Br)c1,1.13
23,C=C(C)[C@@H]1CC[C@]2(C)[C@H](CC=C3[C@@H]4[C@@H](C)[C@H](C)CC[C@]4(C)CC[C@]32C)[C@@]1(C)CCC(=O)O [Roburic acid],1.08
24,CC1(C)O[C@@H]2[C@@H](CO[C@@]3(COS(N)(=O)=O)OC(C)(C)O[C@@H]23)O1 [Topiramate],1.05
25,CCNc1nc(Nc2cc(F)c(C(=O)N3CCOCC3)cc2OC)ncc1C(F)(F)F,1.06
